Measurements as given in PubChem BioAssay AID504332 (National Center for Advancing Translational Sciences (NCATS), 2011).
Values joined by “and” are separate entries in the source; they are usually repeats but may differ in a detail not shown here. Equal values may be shown once. Screen size: about 350,000 compounds; about 31,000 (8.9%) were called active. The shares of active, inactive and inconclusive entries below differ from those in the screen. The call rests on the fitted dose curve; in most records, active means well fitted inhibition curve with a large enough effect; inconclusive means small, poorly fitted or top-dose-only effect; inactive means no such curve, though single readings can be large or run the other way. Where the call is inconclusive, the potency comes from a doubtful curve fit. The source holds several records for some structures; these can differ, active in one and inactive in another.

What follows are molecules tested against Histone-lysine N-methyltransferase EHMT2 (Homo sapiens) (UniProt Q96KQ7) (assay: qHTS Assay for Inhibitors of Histone Lysine Methyltransferase G9a). Conditions: G9a H3K9 monomethylation, AlphaScreen, 2 h; activity, negative = inhibition: at 59 µM (top of the series) unless noted.
Method in brief: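 Chemiluminescent proximity detection of H3K9 monomethylation, read after 10 min bead incubation in the dark. Reaction: 20 nM G9a, 500 nM biotin-H3K9 peptide, 20 uM SAM cofactor, 2 h, room temperature, following 15 min enzyme-compound preincubation.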
Further: nearly all actives have a fitted effect of over 75% in size.
On the % scale 0 is the no-effect control and ±100 the full control effect; potency means the concentration at half of the fitted maximal effect; tags describe the fitted curve by direction and shape.

Sequence of UniProt Q96KQ7 (Q96KQ7 whole entry, looked up): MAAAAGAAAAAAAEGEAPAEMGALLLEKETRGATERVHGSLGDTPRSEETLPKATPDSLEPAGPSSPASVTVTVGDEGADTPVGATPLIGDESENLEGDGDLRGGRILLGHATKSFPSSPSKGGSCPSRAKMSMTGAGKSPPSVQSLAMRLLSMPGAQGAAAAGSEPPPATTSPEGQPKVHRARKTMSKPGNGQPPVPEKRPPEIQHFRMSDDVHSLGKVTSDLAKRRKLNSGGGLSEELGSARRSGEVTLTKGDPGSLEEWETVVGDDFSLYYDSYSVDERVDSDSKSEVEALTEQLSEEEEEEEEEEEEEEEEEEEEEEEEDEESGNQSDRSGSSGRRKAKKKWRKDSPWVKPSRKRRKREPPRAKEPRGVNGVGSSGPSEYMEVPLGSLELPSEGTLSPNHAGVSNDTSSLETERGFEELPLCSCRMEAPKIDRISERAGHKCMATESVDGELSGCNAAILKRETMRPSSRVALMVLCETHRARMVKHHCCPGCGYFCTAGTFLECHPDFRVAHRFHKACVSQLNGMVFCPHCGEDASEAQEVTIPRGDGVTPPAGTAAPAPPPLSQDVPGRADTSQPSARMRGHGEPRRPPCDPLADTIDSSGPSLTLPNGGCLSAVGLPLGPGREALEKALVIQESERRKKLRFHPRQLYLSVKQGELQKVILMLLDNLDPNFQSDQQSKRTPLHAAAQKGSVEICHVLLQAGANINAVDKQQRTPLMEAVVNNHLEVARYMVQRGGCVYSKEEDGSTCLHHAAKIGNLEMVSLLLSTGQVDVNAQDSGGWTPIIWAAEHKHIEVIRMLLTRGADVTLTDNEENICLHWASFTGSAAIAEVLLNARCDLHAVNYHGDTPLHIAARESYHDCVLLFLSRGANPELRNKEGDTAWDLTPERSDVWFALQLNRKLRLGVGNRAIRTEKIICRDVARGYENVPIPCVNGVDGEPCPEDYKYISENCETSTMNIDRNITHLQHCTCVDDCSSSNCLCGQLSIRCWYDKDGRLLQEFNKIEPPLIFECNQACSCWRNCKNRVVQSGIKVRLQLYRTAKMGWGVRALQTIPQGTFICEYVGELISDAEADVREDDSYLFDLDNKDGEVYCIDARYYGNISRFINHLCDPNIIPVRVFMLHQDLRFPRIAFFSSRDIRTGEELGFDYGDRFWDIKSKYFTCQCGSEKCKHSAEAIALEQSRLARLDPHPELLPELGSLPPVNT

Row | SMILES | Potency | activity, negative = inhibition
1 | c1ccc2c(c1)Nc1nccnc1S2 | inconclusive: 22.4 µM [inhibitor, partial curve, poor fit] | –
2 | COc1ccc(NC(=O)CN(C)C(=O)/C=C/c2cn(-c3ccccc3)nc2-c2ccc(F)cc2)cc1 | inconclusive: 89.1 µM [inhibitor, single point] | –
3 | CCOc1ccccc1NC(=O)Cn1c(=O)n(-c2ccccc2)c(=O)c2c1c1cc(C)ccc1n2C | inconclusive: 7.08 µM [inhibitor, single point] | –
4 | Cc1cccc(-n2cc(C(=O)O)c(=O)cc2C)c1 | active: 22.4 µM | –
5 | Cc1[nH]c(=S)c(C#N)c(-c2ccco2)c1C(=O)N(C)C | active: 3.55 µM | –
6 | CCn1c(SCc2nc3ccccc3[nH]2)nnc1-c1ccccc1OC | – | inactive: -7.14% [at 102 µM]
7 | Cc1ccc(N2CCN(C(=O)c3ccccc3Br)CC2)c(C)c1 | inconclusive: 63.1 µM [inhibitor, partial curve, poor fit] | –
8 | CCc1ccc(S(=O)(=O)Nc2ccc(Br)cn2)cc1 | inconclusive: 79.4 µM [inhibitor, partial curve, poor fit] | –
9 | COc1ccc(N(C)C(=O)CCS(=O)(=O)c2cccc3nonc23)c(OC)c1 | inconclusive: 2.82 µM [inhibitor, single point] | –
10 | CC1Cc2ccccc2N1C(=O)c1cc2cccnc2n(C)c1=O (configuration not stated) | – | inactive: 11.1% [at 0.501 µM]
11 | CCNC(=O)c1c(C)oc2ncn(C)c(=O)c12 | inconclusive: 0.631 µM [inhibitor, full curve, poor fit] | –
12 | Cc1ccc(C(C(=O)NC(C)(C)C)N(Cc2ccc3c(c2)OCO3)C(=O)c2ccc(CN3CCOCC3)o2)o1 (configuration not stated) | inconclusive: 44.7 µM [inhibitor, partial curve] | –
13 | c1ccc(NCc2nc3ccccc3n2CCOc2ccccc2)cc1 | inconclusive: 79.4 µM [inhibitor, partial curve, poor fit] | –
14 | COc1ccc(-n2c(=S)[nH]c3cc(C(=O)NCc4cccnc4)ccc3c2=O)cc1 | – | inactive: 4.27% [at 102 µM]
15 | COc1ccc(N2CCN(C(=O)c3ccc4c(=O)n(CCc5ccc(OC)c(OC)c5)c(=O)[nH]c4c3)CC2)cc1 | inconclusive: 3.16 µM [inhibitor, partial curve, poor fit] | –
16 | Cc1ccc(CNC(=O)c2oc3ccc(S(=O)(=O)N4CCC5(CC4)OCCO5)cc3c2C)cc1 | inconclusive: 22.4 µM [inhibitor, single point] | –
17 | CCN(CC)C(=O)c1cnn(-c2ccc(F)cc2)c1-n1cccc1 | – | inactive: 1.1%
18 | CCc1ccc(NCc2cc3cc4c(cc3n(CC(=O)Nc3ccccc3Cl)c2=O)OCO4)cc1 | inconclusive: 8.91 µM [inhibitor, partial curve, poor fit] | –
19 | CCOc1ccc2cc(C3CC(c4ccco4)=NN3S(C)(=O)=O)c(Cl)nc2c1 (configuration not stated) | active: 44.7 µM | –
20 | COc1ccccc1N1N=C(c2ccc([N+](=O)[O-])cc2)CC1c1ccccc1 (configuration not stated) | – | inactive: 22.4% [at 0.501 µM]
21 | CCn1nc(NS(=O)(=O)c2ccc([N+](=O)[O-])cc2)c2cc3cccc(C)c3nc21 | active: 17.8 µM | –
22 | CNC(=O)CC1C(=O)N(c2ccc(OC)cc2)C(=S)N1NC(=O)c1cccc(F)c1 (configuration not stated) | – | inactive: 12.7% [at 102 µM]
23 | Cc1ccc(-c2cn3c(n2)sc2cc(C(=O)NC4CCCc5ccccc54)ccc23)cc1 (configuration not stated) | – | inactive: 3.48%

Row | SMILES | Potency | activity, negative = inhibition
24 | CCC(C(=O)NC1CCCC1)N(C(=O)Cn1nnc(-c2ccc(OC)c(OC)c2)n1)C1CCCCC1 (configuration not stated) | inconclusive: 89.1 µM [inhibitor, single point] | –
25 | CCCCS(=O)(=O)Nc1ccc2c(c1)ncn2C1CCCCC1 | – | inactive: -1.91% [at 2.33 µM]
26 | Cc1ccc2c(-c3ccc([N+](=O)[O-])cc3)cc(=O)[nH]c2c1 | inconclusive: 79.4 µM [inhibitor, single point] | –
27 | O=C(O)CSc1nc2c(c(C(F)(F)F)n1)CCCC2 | inactive | –
28 | Cc1ccccc1CN(c1ccc(C(=O)Nc2ccccc2C(=O)NCc2ccco2)cc1)S(C)(=O)=O | inconclusive: 1.58 µM [inhibitor, partial curve, poor fit] | –
29 | CCOc1ccc(CC2NCCc3cc(OCC)c(OCC)cc32)cc1OCC (configuration not stated) | inconclusive: 50.1 µM [inhibitor, partial curve] | –
30 | CC(C)(C)c1ccc(OCCCC(=O)NC2=NCCS2)cc1 | inconclusive: 11.2 µM [inhibitor, partial curve, poor fit] | –
31 | Cc1ccc(C)n1C(Cc1ccccc1)C(=O)O (configuration not stated) | active: 35.5 µM | –
32 | O=C(N/N=C/c1ccncc1)NC12CC3CC(CC(C3)C1)C2 | inconclusive: 89.1 µM [inhibitor, single point] | –
33 | C[C@@H]1NC(=O)c2cc([N+](=O)[O-])cc(F)c2NCCC[C@@H](C(N)=O)NC(=O)[C@H](CC(N)=O)NC1=O | inconclusive: 89.1 µM [inhibitor, single point] | –
34 | Cc1ccc(NS(=O)(=O)c2cc(NC(=O)c3ccc4c(c3)NC(=O)CS4)ccc2C)c(C)c1 | active: 7.94 µM | –
35 | CCOC(=O)c1sc(NC(=O)/C=C/c2ccccc2)nc1C | inconclusive: 89.1 µM [inhibitor, single point] | –
36 | N#Cc1cnn2c(C(F)(F)F)c3c(nc12)CCCC3 | inconclusive: 0.224 µM [inhibitor, partial curve, poor fit] | –
37 | CC(=O)Nc1ccc(S(=O)(=O)NNC(=S)NCC2CCCO2)cc1 (configuration not stated) | active: 31.6 µM | –
38 | CCC1CCc2c(sc(NC(=O)c3ccoc3C)c2C(N)=O)C1 (configuration not stated) | inconclusive: 25.1 µM [inhibitor, single point] | –
39 | CCN(CC)c1ccc(/C=N/Nc2nc3ccccc3[nH]2)cc1 | inconclusive: 31.6 µM [inhibitor, single point] | –
40 | NC(=O)SC/C(=N\S(=O)(=O)c1ccccc1)Nc1ccccc1 | – | inactive: 5.32%
41 | O=C(Nc1ccc(Br)cc1F)C(NS(=O)(=O)c1cccc2nsnc12)c1ccccc1 (configuration not stated) | inconclusive: 39.8 µM [inhibitor, partial curve, poor fit] | –
42 | COc1ccc(OC)c(-c2cc(C(=O)NCc3ccco3)no2)c1 | inconclusive: 89.1 µM [inhibitor, partial curve, poor fit] | –
43 | COc1ccc(OC)c(NC(=O)c2c(NCc3ccc(OC)c(OC)c3)sc3c2CCC3)c1 | inconclusive: 6.31 µM [inhibitor, partial curve] | –
44 | Cc1cc(C(=O)Nc2ccccn2)no1 | inconclusive: 28.2 µM [inhibitor, single point] | –
45 | CCS(=O)(=O)NCC(c1cccnc1)N1CCN(c2ccccc2OC)CC1 (configuration not stated) | inconclusive: 89.1 µM [inhibitor, single point] | –
46 | Cc1nn(-c2ccccc2)c(C)c1/C=C1\C(=O)N(C)C(=S)N1C | inconclusive: 89.1 µM [inhibitor, partial curve, poor fit] | –

Row | SMILES | Potency | activity, negative = inhibition
47 | CSc1ccc2c(c1)N(CCC1CCCCN1C)c1ccccc1S2 (configuration not stated) | active: 25.1 µM and active: 39.8 µM and active: 17.8 µM | –
48 | COc1ccc(-n2nc(C#N)c(Cl)cc2=O)cc1 | inconclusive: 79.4 µM [inhibitor, partial curve, poor fit] | –
49 | CC(C)CNCC(=O)N1c2ccccc2Sc2ccccc21 | active: 35.5 µM | –
50 | CCOc1ccc(C(=S)N2CCN(C)CC2)cc1 | active: 39.8 µM | –
51 | O=C1Cc2ccccc2Sc2cc(OCCCN3CCCCC3)ccc21 | inconclusive: 39.8 µM [inhibitor, single point] | –
52 | CN(C)c1cccc(C(=O)OCC(=O)c2ccc[nH]2)c1 | inconclusive: 89.1 µM [inhibitor, single point] | –
53 | Cc1ccccc1Cn1cnc2c(nnn2Cc2ccc(F)cc2)c1=O | inconclusive: 79.4 µM [inhibitor, partial curve, poor fit] | –
54 | CCOC(=O)CSC1=C(C#N)C(c2ccc(C)cc2)C2=C(CCCC2=O)N1 (configuration not stated) | inconclusive: 70.8 µM [inhibitor, partial curve] | –
55 | O=C(O)c1ccc(-c2ccccn2)s1 | inconclusive: 50.1 µM [inhibitor, partial curve] | –
56 | Cc1c(N=NC2=C(O)CC(C)(C)CC2=O)cc2c(c1[N+](=O)[O-])C(C)(C)CC2(C)C | – | inconclusive: -58.8% [inhibitor]
57 | CS(=O)(=O)NCCCNc1ccc(Cl)cc1[N+](=O)[O-] | inconclusive: 89.1 µM [inhibitor, single point] | –
58 | CC(C)(C)NC(=O)CN(Cc1ccc2c(c1)OCO2)C(=O)CCC(=O)Nc1nccs1 | active: 39.8 µM | –
59 | CCC(CC)C(=O)Oc1c(Sc2ccccc2[N+](=O)[O-])c(C)nn1C(C)(C)C | active: 31.6 µM | –
60 | CCOC(=O)N1CCN(Cc2nc3cc(NC(=O)c4ccco4)ccc3n2C)CC1 | inconclusive: 79.4 µM [inhibitor, single point] | –
61 | O=S(=O)(c1ccc(Br)cc1)c1nc(-c2ccccc2)oc1NCCN1CCOCC1 | inconclusive: 70.8 µM [inhibitor, single point] | –
62 | COc1cccc2c1cc1c(=O)n(CC(=O)O)nc(C)n12 | – | inactive: -3.29%
63 | Cc1[nH]c2ccccc2c1N=Nc1ccccc1F | active: 39.8 µM | –
64 | Oc1ccc(N=Nc2ccc(Br)cc2)c(O)c1 | inconclusive: 0.316 µM [inhibitor, full curve, poor fit] | –
65 | Clc1cc(Cl)c(OCCCCn2cncn2)c(Cl)c1 | active: 7.94 µM | –
66 | COc1ccc(N(C)S(=O)(=O)c2cccc(C(=O)Nc3ccc(N4CCOCC4)cc3)c2)cc1 | inconclusive: 14.1 µM [inhibitor, single point] | –
67 | CCOc1ccc(-c2c(C)nn3c(C)c(C(=O)NCCc4ccccc4)cnc23)cc1OCC | – | inactive: -1.14%
